In paper PMC4336329 (PLoS ONE, 2015):
About 14,000 (4.5%) of roughly 310,000 compounds showed an effect of 50% or more. The effect is printed as a negative number. This is one part of the list.

What follows are molecules tested against human ether-à-go-go-related gene (hERG) potassium channel (human, UniProt Q12809) (assay: primary screen, population patch clamp on CHO cells stably expressing hERG).
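Further: peak tail current of the secondary pulse compared with the same well before compound.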

Sequence of human ether-à-go-go-related gene (hERG) potassium channel (Q12809 whole entry, looked up): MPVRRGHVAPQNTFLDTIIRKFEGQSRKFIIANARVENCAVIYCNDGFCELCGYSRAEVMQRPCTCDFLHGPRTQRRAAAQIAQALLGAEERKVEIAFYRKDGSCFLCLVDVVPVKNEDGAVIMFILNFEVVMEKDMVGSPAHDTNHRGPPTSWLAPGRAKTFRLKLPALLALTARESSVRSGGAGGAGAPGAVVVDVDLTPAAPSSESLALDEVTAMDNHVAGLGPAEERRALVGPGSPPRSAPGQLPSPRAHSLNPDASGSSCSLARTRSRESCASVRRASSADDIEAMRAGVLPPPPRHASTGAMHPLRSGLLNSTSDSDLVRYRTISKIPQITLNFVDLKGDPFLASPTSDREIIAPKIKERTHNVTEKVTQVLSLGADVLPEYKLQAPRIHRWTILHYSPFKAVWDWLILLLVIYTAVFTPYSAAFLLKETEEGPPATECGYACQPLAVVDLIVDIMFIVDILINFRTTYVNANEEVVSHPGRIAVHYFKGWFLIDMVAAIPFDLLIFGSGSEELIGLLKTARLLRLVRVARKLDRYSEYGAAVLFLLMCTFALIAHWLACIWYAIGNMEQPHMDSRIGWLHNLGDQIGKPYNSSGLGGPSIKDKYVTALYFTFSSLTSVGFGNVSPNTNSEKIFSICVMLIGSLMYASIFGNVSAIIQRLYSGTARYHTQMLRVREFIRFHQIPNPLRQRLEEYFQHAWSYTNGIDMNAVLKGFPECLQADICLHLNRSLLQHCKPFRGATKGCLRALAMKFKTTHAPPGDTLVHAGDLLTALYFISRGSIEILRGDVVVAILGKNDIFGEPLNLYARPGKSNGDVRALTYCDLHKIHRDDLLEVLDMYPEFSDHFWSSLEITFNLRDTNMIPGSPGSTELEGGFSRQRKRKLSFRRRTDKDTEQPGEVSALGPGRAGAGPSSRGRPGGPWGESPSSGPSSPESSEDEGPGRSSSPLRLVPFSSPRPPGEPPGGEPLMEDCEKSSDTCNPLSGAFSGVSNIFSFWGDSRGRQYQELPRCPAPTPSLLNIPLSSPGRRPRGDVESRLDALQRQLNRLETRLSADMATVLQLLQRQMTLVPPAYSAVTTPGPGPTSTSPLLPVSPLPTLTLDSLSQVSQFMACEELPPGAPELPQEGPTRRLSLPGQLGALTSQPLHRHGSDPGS

Compared with CCc1ccc2c(c1)C(c1ccncc1)=NNC(c1ccccc1)=N2, Brc1ccccc1-c1nc(-c2ccccc2)no1 is higher in “hERG current change (%, negative = inhibition) at 10uM” value: 0.537% for the first, 5.04% for the second.

Going from CCOc1ccc2nc(SCC(=O)N3CCN(C(=O)c4ccco4)CC3)sc2c1 to Cc1cccc2c(C(=O)N3CCN(C(=O)c4ccco4)CC3)cc(-c3cccc(Br)c3)nc12, the “hERG current change (%, negative = inhibition) at 10uM” value rises from -66.2% to 4.09%.

Compared with O=c1onc(-c2ccccc2)c2ccccc12, CN(C)c1nc(-c2ccccn2)nnc1-c1ccccc1 is lower in “hERG current change (%, negative = inhibition) at 10uM” value: 6.55% for the first, -0.724% for the second.

First: COc1ccc(Br)c(C(=O)OCc2cc(=O)oc3cc(C)ccc23)c1
Second: COC(=O)c1cccc(S(=O)(=O)N(Cc2ccco2)Cc2cc3ccc(OC)cc3[nH]c2=O)c1
The “hERG current change (%, negative = inhibition) at 10uM” value of the first is lower: 6.38% for the first, 7.12% for the second.

Compared with COCc1c(C(=O)N/N=C\c2cccs2)nnn1-c1nonc1N, Nc1nnnn1/N=C/c1cccs1 is lower in “hERG current change (%, negative = inhibition) at 10uM” value: 18.6% for the first, 3.28% for the second.

First: O=C(O)CC(O)(CC(=O)O)C(=O)O
Second: Cc1cc(NC(=O)CN2CCCCCCC2)no1.O=C(O)C(=O)O
The “hERG current change (%, negative = inhibition) at 10uM” value of the first is lower: 4.16% for the first, 4.84% for the second.

Compared with Cc1ccc(NC(=O)[C@@]2(CC(=O)O)CC(/C=C/c3ccccc3)=NO2)c(C)c1, O=C(O)CCC(=O)Nc1cccc(-c2nnc(-c3ccccc3)o2)c1 is higher in “hERG current change (%, negative = inhibition) at 10uM” value: 18.6% for the first, 18.9% for the second.

First: CC(C)(C)c1cc(NCCCn2ccnc2)n2ncc(-c3ccc(Cl)cc3)c2n1
Second: NS(=O)(=O)c1cccc(NC(=O)COC(=O)c2cc(-c3ccc(Cl)cc3)nc3ccccc23)c1
The “hERG current change (%, negative = inhibition) at 10uM” value of the first is lower: 12.1% for the first, 13.6% for the second.

Going from C/C(=C\C(=O)c1ccc(Cl)s1)N(C)C to COC(=O)NCc1cc2cc(Cl)ccc2[nH]1, the “hERG current change (%, negative = inhibition) at 10uM” value falls from 3.3% to -18%.

Going from CC(C)n1ncc2c(C(=O)O)cc(C3CC3)nc21 to CCN(C(=O)COC(=O)c1nc2nc(C)cc(C)n2n1)C1CCS(=O)(=O)C1 (stereo not drawn), the “hERG current change (%, negative = inhibition) at 10uM” value falls from -4.71% to -18.2%.

Going from C=CCOC(=O)C1=C(C)OC(N)=C(C#N)C12C(=O)N(CN1CCOCC1)c1ccccc12 (stereo not drawn) to O=C(Nc1ccc(Cl)cc1C(=O)NCCN1CCOCC1)c1ccco1, the “hERG current change (%, negative = inhibition) at 10uM” value falls from -1.58% to -16.7%.

Compared with Cc1ccc(S(=O)(=O)CCC(=O)OCC(=O)N2c3ccccc3CC2C)cc1 (stereo not drawn), CCOC(=O)CNC(=O)Cn1cnc2c(cnn2-c2ccc(C)cc2)c1=O is lower in “hERG current change (%, negative = inhibition) at 10uM” value: 13% for the first, -1.61% for the second.

Going from O=C(NCc1ccccc1Cl)C(=O)NCC1CCCN1S(=O)(=O)c1cccs1 (stereo not drawn) to COC(=O)C1CCN(C(=O)c2ccc(Cl)c(S(=O)(=O)NCc3cccnc3)c2)CC1, the “hERG current change (%, negative = inhibition) at 10uM” value rises from -20% to 13%.

Going from O=[N+]([O-])c1ccccc1S(=O)(=O)Oc1ccccc1/C=N/n1cnnc1 to COc1ccc(C(=O)N/N=C/c2c(C)nn(-c3ccccc3)c2OC)cc1, the “hERG current change (%, negative = inhibition) at 10uM” value rises from -16.9% to -10%.

First: O=C(c1cccc(Oc2ccc([N+](=O)[O-])cc2)c1)N1CCOCC1
Second: O=C(c1ccc(CS(=O)(=O)Cc2ccc(Cl)cc2)o1)N1CCCC1
The “hERG current change (%, negative = inhibition) at 10uM” value of the first is lower: -34.3% for the first, -19% for the second.

First: CCOCCN1CCN(c2c(CC)c(C)nc3cc(-c4cc(OC)cc(OC)c4)nn23)CC1
Second: Cc1nc2cc(-c3cccc(F)c3)nn2c(C)c1CCC(=O)NC(C)CCc1ccco1 (stereo not drawn)
The “hERG current change (%, negative = inhibition) at 10uM” value of the first is lower: -72.4% for the first, -70.6% for the second.

Going from O=C(CSc1cn[nH]n1)Nc1nc2ccccc2s1 to Cc1nc(C)c(-c2csc(NCc3ccccc3)n2)s1, the “hERG current change (%, negative = inhibition) at 10uM” value falls from 1.49% to -18.6%.

Going from O=[N+]([O-])c1ccc(S(=O)(=O)Nc2ncccn2)cc1 to Oc1ccc(F)c2cccnc12, the “hERG current change (%, negative = inhibition) at 10uM” value falls from 20.3% to 18.2%.

First: CCN1CCN(C(c2cccs2)C(C)NC(=O)c2ccccc2OC)CC1 (stereo not drawn)
Second: Cc1ccc(NC(=O)C2CCN(C(=O)c3ccccc3C)CC2)nc1
The “hERG current change (%, negative = inhibition) at 10uM” value of the first is lower: -28.9% for the first, -10.9% for the second.

First: Cc1ccc(OC(=S)Nc2ccc(F)cc2)cc1
Second: CC(Sc1cccc[n+]1[O-])C(=O)Nc1ccc(Oc2ccccc2)cc1 (stereo not drawn)
The “hERG current change (%, negative = inhibition) at 10uM” value of the first is higher: 7.01% for the first, -9.83% for the second.

Going from Cc1cc(NC(=O)CSc2nnc(-c3cccc(F)c3)n2N)no1 to Cc1ccc(NC(=O)CCc2c(C)nn(-c3ccc(N4CCOCC4)nn3)c2C)cc1, the “hERG current change (%, negative = inhibition) at 10uM” value falls from 27.6% to -6.61%.

First: CCN(CC)CCSc1nnc2c3cc(F)ccc3n(Cc3ccccc3)c2n1
Second: O=C(O)CCC(=O)NCCC1=c2ccccc2=N/C1=C\c1c(O)n(Cc2ccc(F)cc2)c(=S)[nH]c1=O
The “hERG current change (%, negative = inhibition) at 10uM” value of the first is lower: -77% for the first, 5.66% for the second.

Going from CCn1c(SCC(=O)N2CCCC2)nc2ccccc21 to CCN(C(=O)COC(=O)c1ccccc1SCC(=O)N1CCCC1)C1CCS(=O)(=O)C1 (stereo not drawn), the “hERG current change (%, negative = inhibition) at 10uM” value falls from 13.6% to 9.06%.

Compared with COc1ccc(-c2cc(=O)oc3c(C)c(OC(C)C(=O)N4C[C@H]5C[C@@H](C4)c4cccc(=O)n4C5)ccc23)cc1 (stereo partly drawn), COc1ccc(NC(=O)C2=C(C)Nc3nc(CCCO)nn3C2c2ccc(OC)c(OC)c2)cc1 (stereo not drawn) is higher in “hERG current change (%, negative = inhibition) at 10uM” value: -47.2% for the first, 13.8% for the second.

First: Cc1ccc(N=Nc2[nH]c3ccccc3c2O)cc1
Second: CCOc1ccc(C(=O)Nc2c(C(N)=O)oc3ccccc23)cc1
The “hERG current change (%, negative = inhibition) at 10uM” value of the first is higher: 19.7% for the first, 11.9% for the second.

First: CCCSc1nnc(NC(=O)Cc2ccc(OC)c(OC)c2)s1
Second: CCOC(=O)c1ccc(N2C(=O)C(CC(N)=O)N(CCc3ccc(OC)c(OC)c3)C2=S)cc1 (stereo not drawn)
The “hERG current change (%, negative = inhibition) at 10uM” value of the first is lower: 4.66% for the first, 16% for the second.

Going from CCc1ccc(OCC(=O)NC(=S)Nc2ccc(C(C)=O)cc2)c(Br)c1 to CCc1ccc(NC(=O)C2CCN(S(=O)(=O)c3ccc4c(c3)NC(=O)C(C)S4)CC2)cc1 (stereo not drawn), the “hERG current change (%, negative = inhibition) at 10uM” value rises from -2.72% to 19.2%.

First: CC1(C)COC(c2cccn2Cc2ccc(F)cc2Cl)=N1
Second: CC1(C)Cc2cccc(OCC(=O)Nc3ccccc3F)c2O1
The “hERG current change (%, negative = inhibition) at 10uM” value of the first is lower: -0.439% for the first, 1.74% for the second.

Going from COC(=O)C1CC23C=CCN4CCC5(c6ccccc6NC15C2C)C43 (stereo not drawn) to CCc1ccccc1NC(=O)N1CCC(NC(=O)C(Cc2ccccc2)NC(C)=O)CC1 (stereo not drawn), the “hERG current change (%, negative = inhibition) at 10uM” value rises from 8.9% to 13.9%.

First: Cc1ccc2cccc(NC(=S)NC(=O)c3ccccc3)c2n1
Second: CC(c1ccco1)N(C(=O)c1ccc(C(F)(F)F)cc1)c1ccccn1 (stereo not drawn)
The “hERG current change (%, negative = inhibition) at 10uM” value of the first is lower: 6.97% for the first, 8.13% for the second.

First: CCOC(=O)C1(CCCc2ccccc2)CCN(C(=O)CCC2=NNC(=O)CC2)CC1
Second: CCOC(=O)CSc1nnc(CSc2nc3sc4c(c3c(=O)[nH]2)CCCC4)n1-c1ccccc1
The “hERG current change (%, negative = inhibition) at 10uM” value of the first is higher: 11.8% for the first, -6.62% for the second.

Going from COC(=O)C1=CN(c2ccc(OC)cc2)C=C(C(=O)OC)C1c1cc(OC)c(OC)cc1OC to CCN(CC)c1ccc(NC(=O)c2c(OC)cccc2OC)c(C)c1, the “hERG current change (%, negative = inhibition) at 10uM” value rises from -6.3% to 15.9%.

Compared with COc1ccccc1C1NC(=O)CCC1[N+](=O)[O-] (stereo not drawn), O=c1cc(Cc2ccccc2)[nH]c(=S)[nH]1 is lower in “hERG current change (%, negative = inhibition) at 10uM” value: 17.6% for the first, 12.7% for the second.

Compared with CCOC(=O)N1CCC(N(C(=O)Nc2ccc(Cl)c(Cl)c2)C(C)CC)CC1 (stereo not drawn), Cc1cccc(C(=O)OCC(=O)NC2CCCCCCC2)c1 is higher in “hERG current change (%, negative = inhibition) at 10uM” value: 6.19% for the first, 8.28% for the second.

Compared with Brc1ccc2nc(N3CCN(c4ccccc4)CC3)sc2c1, c1ccc(-c2nc(N3CCN(c4ccccc4)CC3)nc(-n3ccnc3)n2)cc1 is lower in “hERG current change (%, negative = inhibition) at 10uM” value: 31.8% for the first, -2.66% for the second.

First: COc1ccc(C(=O)NC2CCN(CC(=O)NC3CCCCC3)CC2)cc1
Second: O=C(Nc1cc(C(=O)N2CCCC2)ccc1N1CCCC1)C1CC1
The “hERG current change (%, negative = inhibition) at 10uM” value of the first is lower: -17.3% for the first, -12.9% for the second.

Going from Cc1csc(SC(C)C(=O)NCC(=O)Nc2ccc(F)c(F)c2F)n1 (stereo not drawn) to CCN(CC(=O)Nc1c(F)cccc1F)C(=O)c1ccc(=O)[nH]c1, the “hERG current change (%, negative = inhibition) at 10uM” value falls from 21.8% to 18.2%.

Compared with Clc1cncc(Cl)c1N/N=C/c1ccccc1, O=C(CCc1c[nH]c2ccccc12)N/N=C/c1ccc2c(c1)OCO2 is higher in “hERG current change (%, negative = inhibition) at 10uM” value: -1.37% for the first, 6.33% for the second.

Compared with O=C(Nc1cccc(-c2cccc(Cl)c2)c1)C1CCN(Cc2ccccn2)CC1, O=C(CSc1nnc(CN2CCOCC2)n1-c1ccc(Cl)cc1)N1CCc2ccccc21 is higher in “hERG current change (%, negative = inhibition) at 10uM” value: -77.8% for the first, 8.46% for the second.

Going from COc1nc(Cl)cn(-c2ccc(C)cc2)c1=O to COc1ccc(-c2nc(-c3cccc(C(F)(F)F)c3)no2)cc1OC, the “hERG current change (%, negative = inhibition) at 10uM” value rises from -6.03% to -2.54%.

Going from N#CC1=C(S)N(c2ccc(F)cc2)C2(CCCCC2)NC1=O to Cc1ccc2cc(CN(CCN(C)C)C(=S)Nc3ccccc3)c(=O)[nH]c2c1C, the “hERG current change (%, negative = inhibition) at 10uM” value falls from 3.65% to -49.9%.

Going from COCCNC(=O)CN(Cc1cccs1)C(=O)CCC(=O)Nc1nccs1 to CCCCn1c(N)c(N(CCOC)C(=O)c2cnc(C)cn2)c(=O)[nH]c1=O, the “hERG current change (%, negative = inhibition) at 10uM” value falls from 10.4% to 3.09%.

Compared with CC(=O)c1c(COC(=O)c2cccnc2)nc2ccccc2[n+]1[O-], Cn1c(N)c(C(=O)COC(=O)C2CCCN2C(=O)c2cccs2)c(=O)n(C)c1=O (stereo not drawn) is lower in “hERG current change (%, negative = inhibition) at 10uM” value: 8.18% for the first, 0.553% for the second.

With CCCOc1ccc(/C=N/NC(=O)C2CC2)c(OCCC)c1 the “hERG current change (%, negative = inhibition) at 10uM” value was 17.8%.
